Among all 310,000 compounds or so, about 14,000 (4.5%) showed an effect of 50% or more. The effect is printed as a negative number. The list shows a part of the results.
biological target: human ether-à-go-go-related gene (hERG) potassium channel (human, UniProt Q12809); assay: primary screen, population patch clamp on CHO cells stably expressing hERG
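Note: peak tail current of the secondary pulse compared with the same well before compound.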

human ether-à-go-go-related gene (hERG) potassium channel, sequence (Q12809 whole entry, looked up): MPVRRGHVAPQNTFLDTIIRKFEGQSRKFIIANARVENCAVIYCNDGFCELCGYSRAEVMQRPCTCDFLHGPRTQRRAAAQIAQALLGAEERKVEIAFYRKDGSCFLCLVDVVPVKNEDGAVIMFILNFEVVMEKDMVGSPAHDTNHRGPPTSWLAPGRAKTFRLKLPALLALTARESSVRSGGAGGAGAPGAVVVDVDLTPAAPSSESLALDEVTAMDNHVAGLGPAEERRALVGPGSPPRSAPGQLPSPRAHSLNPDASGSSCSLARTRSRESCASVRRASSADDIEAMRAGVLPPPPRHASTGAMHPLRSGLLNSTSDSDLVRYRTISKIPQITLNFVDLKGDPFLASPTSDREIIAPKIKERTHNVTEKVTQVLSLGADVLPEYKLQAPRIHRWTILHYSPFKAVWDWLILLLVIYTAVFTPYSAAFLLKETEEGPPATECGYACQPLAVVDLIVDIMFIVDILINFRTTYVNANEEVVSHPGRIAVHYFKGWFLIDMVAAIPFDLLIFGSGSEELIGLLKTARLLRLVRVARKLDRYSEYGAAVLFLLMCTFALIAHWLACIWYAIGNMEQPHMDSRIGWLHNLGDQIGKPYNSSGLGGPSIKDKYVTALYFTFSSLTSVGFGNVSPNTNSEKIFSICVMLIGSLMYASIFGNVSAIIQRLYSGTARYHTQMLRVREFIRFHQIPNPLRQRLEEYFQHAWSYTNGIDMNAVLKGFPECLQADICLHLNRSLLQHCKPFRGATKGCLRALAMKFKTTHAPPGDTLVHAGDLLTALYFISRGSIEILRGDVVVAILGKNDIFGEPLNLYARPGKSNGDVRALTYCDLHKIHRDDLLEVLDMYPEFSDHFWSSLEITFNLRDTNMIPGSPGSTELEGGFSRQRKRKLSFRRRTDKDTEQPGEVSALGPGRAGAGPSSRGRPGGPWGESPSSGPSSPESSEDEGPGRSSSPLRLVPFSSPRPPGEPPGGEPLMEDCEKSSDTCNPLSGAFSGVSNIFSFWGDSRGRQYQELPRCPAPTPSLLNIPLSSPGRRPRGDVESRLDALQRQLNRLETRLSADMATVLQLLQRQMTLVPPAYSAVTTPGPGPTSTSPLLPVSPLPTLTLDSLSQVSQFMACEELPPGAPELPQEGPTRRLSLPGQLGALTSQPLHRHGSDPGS

Point of comparison: CC(=O)c1ccc(OCC(=O)N(C2CCCCC2)C2CCS(=O)(=O)C2)cc1 (centres unmarked), “hERG current change (%, negative = inhibition) at 10uM” value -2.18%. Against it:
- C=CCNC(=O)/C(C#N)=C/c1c(C)nn(-c2ccc(Cl)cc2)c1Cl — higher, 3.71%
- COc1cc(F)ccc1S(=O)(=O)N1CCN(Cc2ccccc2)CC1 — higher, -1.08%
- CC(C)(C)OC(=O)N[C@H](C(=O)OC(C)(C)C)c1ccc2c(c1)OCO2 — lower, -4.77%
- c1ccc2oc(-c3[nH]ncc3CN3CCSCC3)cc2c1 — lower, -5.92%
- CC1CN(CCCCSc2ccccc2)CC(C)O1.Cl (centres unmarked) — lower, -8.71%
- Cc1ccc(CN2CC(=O)N3[C@H]4c5cc(C)ccc5OC[C@@H]4[C@H](c4ccccc4)[C@]3(C)C2=O)cc1 — higher, 12.5%
- CCSc1nc(-c2ccccc2)nc(C(Cl)Cl)n1 — higher, -0.375%
- CN1CCC(N(C)C(=S)Nc2ccc(F)cc2)CC1 — higher, 21.3%
- Cc1ccc(NC(=S)NNC(=O)Cn2nc([N+](=O)[O-])cc2C)cc1 — higher, 22.1%
- Cc1ccc(C(=O)CSc2ccccc2C(=O)O)cc1 — higher, 16.9%
- CC1=CC(=C2C(=O)NC(=O)NC2=O)C=C(C(F)(F)F)N1Cc1ccccc1 — lower, -3.33%
- CC(C)n1cc(CN2CCN(C)C(CCO)C2)c2ccccc21 (centres unmarked) — higher, 17.4%
- COc1ccc(S(=O)(=O)NCC(=O)N(CC(=O)NCC2CCCO2)Cc2ccc(F)cc2)cc1 (centres unmarked) — higher, -2.05%
- COc1ccc([N+](=O)[O-])cc1NC(=O)CCN1CCOCC1 — higher, -0.574%
- CC(=O)Nc1cc[n+](C(C)C(=O)c2ccccc2)cc1.[Cl-] (centres unmarked) — higher, 7.29%
- Cc1cc(Nc2cccc(C(=O)O)c2)n2ncnc2n1 — higher, 19.7%
- COC(=O)c1ccc(C)c(NC(=O)CN2C(=O)c3ccccc3S2(=O)=O)c1 — higher, 6.46%
- Cc1cccnc1NS(=O)(=O)c1cccc([N+](=O)[O-])c1 — higher, 6.1%
- Cc1ccc(C2C3=C(CCCC3=O)N=C3c4ccccc4C(=O)C32)cc1 (centres unmarked) — lower, -10.2%
- O=c1c(-c2nc3ccccc3s2)cccn1Cc1ccc(Cl)cc1 — higher, 0.362%
- COc1cc(/C=N/NC(=O)c2ccc(O)cc2)ccc1OCC(=O)Nc1cccc([N+](=O)[O-])c1 — higher, 10.3%
- CN(C)/N=C/c1ccc(Sc2ccccc2[N+](=O)[O-])o1 — lower, -5.83%
- CCCCCCn1c(SCC(=O)Nc2cc(C)on2)nc2ccccc2c1=O — higher, 6.53%
- COc1cc(C(=O)NCC(=O)OCc2cc(=O)oc3c(C)c(C)ccc23)cc(OC)c1OC — lower, -9.1%
- COc1ccccc1CC(NC(C)=O)C(=O)NC1CCN(C(=O)Nc2ccccc2C)CC1 (centres unmarked) — higher, 2.45%
- O=C(Cn1cc([N+](=O)[O-])cn1)N1CCCc2ccccc21 — lower, -6.61%
- CCOC(=O)c1cc(C)nc(SC)c1C#N — higher, 6.49%
- COC(=O)c1ccc(COc2cc(C)ccc2C)o1 — higher, 15.9%
- CCOc1ccc(S(=O)(=O)NCCOC)cc1C — higher, 14.7%
- O=C(NC(=S)Nc1ccccc1O)c1ccc(-c2ccc(Cl)cc2)o1 — higher, 17.3%
- CCOc1ccc2nc(NC(=O)CN3CCC(n4nnc5cc(F)ccc54)CC3)sc2c1 — lower, -40.1%
- O=C(Cn1ccccc1=S)c1ccc(Cl)c(Cl)c1 — lower, -4.39%
- CC(C)NC(NC(=O)Cc1ccccc1)C(Cl)(Cl)Cl (centres unmarked) — higher, 18.8%
- Cn1nccc1C(=O)NC1CCCc2c1cnn2-c1ccccc1F (centres unmarked) — higher, 18.9%
- CC(=O)OCc1c(-c2ccccc2)c2cc([N+](=O)[O-])ccc2n1C — higher, 12.8%
- Cc1ccc(-c2csc(N3CCC[C@@H]3C(=O)NCCn3c(C(F)(F)F)nc4ccccc43)n2)cc1 — higher, 6.33%
- COc1ccc(S(=O)(=O)Nc2ccc(Cl)cn2)c(C)c1C — higher, 12.1%
- COc1ccc2c(C)cc3nncn3c2c1 — higher, 10.4%
- O=C(CCCn1c(=O)[nH]c2ccccc2c1=O)N1CCN(c2ccccn2)CC1 — higher, 5.25%
- NS(=O)(=O)c1ccc(CCNC(=O)CN2CCN(c3cccc(Cl)c3)CC2)cc1 — lower, -27.6%
- CCCCNC(=O)CSc1nc(O)cc(=O)n1C1CCCC1 — higher, 4.18%
- C/C(=N\NC(=O)CSc1nc2nc(C)cc(C)n2n1)c1ccccc1 — lower, -15.5%
- COc1cc(OC)c(C2C(C#N)=C(C)NC(C)=C2C#N)c(C(=O)O)c1 — higher, 11.1%
